# The shares of active, inactive and inconclusive entries below differ from those in the screen. Potencies of inconclusive entries are doubtful fits and often do not repeat. Calls of active or inactive are those of the source. Calls come from the whole dose curve; as a rule, active = well fitted cell-killing curve with a large enough effect; inconclusive = small, poorly fitted or top-dose-only effect, or effect the other way; inactive = flat fitted curve, though single readings scatter.
# System: PA-1
# Assay: Primary qHTS to identify gynecologic anti-cancer compounds using libraries of approved drugs and bioactive compounds (AID 1345084); note: nearly all actives have a fitted effect of over 55% in size
# Conditions: Gynecologic cancer cell panel viability, ATPlite luminescence, 48 h; series mostly up to 57.5 µM
# Text: National Center for Advancing Translational Sciences [NCATS] Assay Overview: Chemotherapeutic drug responses vary from cancer to cancer and from patient to patient. These variations could be caused by a number of factors including patient genomic background, tumor mutations, tumor heterogeneity, and aspects of drug treatment. Chemotherapeutic drug resistance is also a common issue and can lead to ineffective treatment and patient death. Here we have profiled the cell killing effects of thousands of compounds to characterize the responses in three gynecological cancers, identify cancer-selective compounds, and understand the diversity of responses to these compounds from pan-cancer suppressors to single cell line selective compounds. In this assay, we screened a 7,914 compound drug library that included approved drug and bioactive compounds in six ovarian, three cervical, and […] placental cancer cell lines using the ATPlite assay for cell viability. […] The cervical cancer cell lines included HeLa, Ca Ski, and C-33 A. The placental cancer cell lines included JEG-3. HEK 293T cells were used as the control cell line to determine the selectivity index. ATPlite is a luminescence based assay reliant on the conversion of a luciferase substrate to light in the presence of ATP. As a cytotoxic compound will suppress growth and decrease the number of cells, the concentration of ATP will decrease, and less light signal will be detected in the well.
# Assay Protocol Summary: 1,000 cells in 4 uL of media were dispensed into white, solid bottom 1536-well plates using a Multidrop Combi (Thermo Scientific). The Assay plates were incubated for 16 hours at 37 C with 5% CO2 in assay plates, followed by the addition of 23 nL of DMSO or drug dissolved in DMSO. Each compound was assayed in five concentrations (0.092, 0.46, 2.3, 11.5, and 57.5 uM), using the automated Wako 1536 Pin Tool workstation and incubated at 37 C with 5% CO2 48 hours. 4 uL of ATPlite, the ATP monitoring reagent, was then added to the each well of the assay plates using the Multidrop Combi reagent dispenser followed by incubation for 15 minutes at room temperature. The resulting luminescence was measured using the ViewLux plate reader.
# Potency is the fitted concentration of half-maximal effect; tags give direction and shape of the fitted curve.
row,Compound,Potency
1,COc1cc2ncc(-c3ccccc3)nc2cc1OC,"inconclusive: 12.6 µM [cytotoxic, partial curve, poor fit]"
2,C=C1CN(Cc2ccc(C(=O)Nc3ccccc3N)cc2)C(=O)c2ccccc21,active: 2.24 µM
3,Cc1cnc(Nc2ccc(CN3CCOCC3)cc2)nc1Nc1cccc(S(=O)(=O)NC(C)(C)C)c1,active: 1.58 µM
4,Cn1c(=O)c2c(ncn2Cc2ccc(C(C)(C)C)cc2)n(C)c1=O,"inconclusive: 3.98 µM [cytotoxic, partial curve, poor fit]"
5,O=C(NCCCNC(=O)c1ccc[nH]c1=O)c1cc(-c2ccccc2)on1,active: 8.91 µM
6,CS(=O)(=O)N1CCC(NC(=O)c2[nH]ncc2NC(=O)c2c(Cl)cccc2Cl)CC1,active: 3.98 µM
7,CC(C)c1cc(C(=O)N2Cc3ccc(CN4CCN(C)CC4)cc3C2)c(O)cc1O,active: 0.501 µM
8,CCN(CC)CCCCCCNc1cc(OC)cc2c(C)ccnc12,"inconclusive: 35.5 µM [cytotoxic, single point]"
9,CCCCCCCCCCCC[N+](C)(C)Cc1ccccc1,active: 8.91 µM
10,CCn1nnc2c(N3CCOCC3)nc(-c3ccc(NC(=O)Nc4ccc(C(=O)N5CCN(C)CC5)cc4)cc3)nc21,active: 0.398 µM
11,Cc1cc(C)cc(C(=O)NOCCCCCC(=O)NO)c1,active: 0.891 µM
12,C=CC1(C)CC=C2C(CCC3C(C)(C(=O)O)CCCC23C)C1 (stereo not given),inactive
13,COc1ccc([C@@H]2Sc3ccccc3NC(=O)[C@@H]2O)cc1,"inconclusive: 39.8 µM [cytotoxic, single point]"
14,CCCC(CCC)C(=O)Nc1ccn([C@@H]2O[C@H](CO)[C@@H](O)C2(F)F)c(=O)n1,"inconclusive: 8.91 µM [cytotoxic, partial curve]"
15,Clc1ccccc1CNCC1CCC(CNCc2ccccc2Cl)CC1 (stereo not given),"inconclusive: 14.1 µM [cytotoxic, partial curve, poor fit]"
16,NC(=O)c1c(OCc2c(F)cc(Br)cc2F)nsc1NC(=O)NCCCCN1CCCC1,"inconclusive: 28.2 µM [cytotoxic, single point]"
17,Cc1c(C(=O)N2CCOc3ccc(-c4ccc(N)nc4)cc3C2)ccc(S(C)(=O)=O)c1F,"inconclusive: 14.1 µM [cytotoxic, partial curve]"
18,O=C(O[C@@H]1O[C@H](CO)[C@@H](O)[C@H](O)[C@H]1O)c1ccccc1,"inconclusive: 12.6 µM [rising, partial curve, poor fit]"
19,Nc1nc(Nc2ccc3c(c2)CCC(N2CCCC2)CC3)nn1-c1cc2c(nn1)-c1ccccc1CCC2 (stereo not given),"inconclusive: 39.8 µM [cytotoxic, single point]"
20,COc1c(C)c2c(c(O)c1C/C=C(\C)CCC(=O)OCCN1CCOCC1)C(=O)OC2,"inconclusive: 1.78 µM [cytotoxic, full curve, poor fit]"

row,Compound,Potency
1,COc1cc(N2CCN(C)CC2)ccc1Nc1nccc(-c2cn(C)c3cnccc23)n1,"inconclusive: 35.5 µM [cytotoxic, single point]"
2,Cc1cc(C(C#N)c2ccc(Cl)cc2)c(Cl)cc1NC(=O)c1cc(I)cc(I)c1O (stereo not given),"inconclusive: 28.2 µM [cytotoxic, single point]"
3,Cc1ccc(NC(=O)N2CCN(c3nc(N)nc4sc(-c5cccnc5)nc34)CC2)cc1,"inconclusive: 17.8 µM [cytotoxic, partial curve]"
4,Cc1cc(C(C)Nc2ccccc2C(=O)O)c2nc(N3CCOCC3)cc(=O)n2c1 (stereo not given),"inconclusive: 20 µM [cytotoxic, partial curve, poor fit]"
5,COc1ccc2nc3n[nH]c(C)c3c(NCCOCCO)c2c1,"inconclusive: 11.2 µM [cytotoxic, partial curve, poor fit]"
6,C[C@@H]1O[C@@H](O[C@H]2[C@H](OC(=O)[C@]34CCC(C)(C)C[C@H]3C3=CCC5[C@@]6(C)C[C@H](O)[C@H](O[C@@H]7O[C@H](CO)[C@@H](O)[C@H](O)[C@H]7O)[C@@](C)(CO)C6[C@H](O)C[C@@]5(C)[C@]3(C)CC4)OC[C@H](O)[C@@H]2O)[C@H](O)[C@H](O)[C@H]1O[C@@H]1OC[C@@H](O)[C@H](O[C@@H]2OC[C@](O)(CO)[C@H]2O)[C@H]1O (stereo not given in full),"inconclusive: 1.26 µM [rising, single point]"
7,C/C=C(/C)C(=O)O[C@@H]1C[C@@H](OC(=O)CC(C)C)C2(C)C3C(=O)C=C(C)C2C3C1(C)C (stereo not given in full),"inconclusive: 0.891 µM [cytotoxic, partial curve]"
8,CC(=O)O[C@H]1CC(C)(C)CC2[C@]13CO[C@@]21CCC2[C@@]4(C)CC[C@H](O[C@@H]5OC[C@H](O[C@@H]6O[C@H](CO)[C@@H](O)[C@H](O)[C@H]6O[C@@H]6OC[C@@H](O[C@@H]7O[C@H](CO)[C@@H](O)[C@H](O)[C@H]7O)[C@H](O)[C@H]6O)[C@H](O)[C@H]5O[C@@H]5O[C@H](CO)[C@@H](O)[C@H](O)[C@H]5O)[C@@](C)(CO)C4CC[C@@]2(C)[C@]1(C)C[C@H]3O (stereo not given in full),"inconclusive: 6.31 µM [cytotoxic, single point]"
9,COc1ccc(C[C@H](N)C(=O)N[C@@H]2[C@H](O)[C@H](n3cnc4c(N(C)C)ncnc43)O[C@@H]2CO)cc1,active: 1 µM
10,C=C1C(=O)OC[C@@H]1C/C=C(\C)CC1CC(C)C(=O)O1 (stereo not given in full),"inconclusive: 3.98 µM [cytotoxic, single point]"
11,COc1cc(Br)c(Nc2nc(-c3c(C)nc4ncccn34)cs2)c(Br)c1,active: 4.47 µM
12,CN(CCc1ccc(Nc2ncc(-c3cccnc3)s2)cc1)Cc1ccccc1,"inconclusive: 25.1 µM [cytotoxic, single point]"
13,C/C=C(/COC(=O)/C(C)=C/C)C(=O)OC/C=C/c1ccc(OC)cc1,"inconclusive: 11.2 µM [cytotoxic, single point]"
14,CCCCOC(=O)CC(CC(=O)OCCCC)(OC(C)=O)C(=O)OCCCC,inactive
15,CC(C)n1nc(-c2cc3cc(O)ccc3[nH]2)c2c(N)ncnc21,"inconclusive: 3.98 µM [cytotoxic, partial curve, poor fit]"
16,CN1CCc2cccc3c2[C@H]1Cc1ccc(O)c(O)c1-3,"inconclusive: 39.8 µM [cytotoxic, single point]"
17,C=C(C)[C@@H]1CC[C@]2(C(=O)O)CC[C@]3(C)[C@H](CCC4[C@@]5(C)CCC(=O)C(C)(C)C5C(O)C[C@]43C)C12 (stereo not given in full),inactive
18,CN(C)C(=O)c1cc2cnc(Nc3ccc(N4CCNCC4)cn3)nc2n1C1CCCC1,"inconclusive: 10 µM [cytotoxic, partial curve, poor fit]"
19,C=C1C(=O)O[C@@H]2C3=C(C)CCC[C@]3(C)CC[C@@]12O,"inconclusive: 39.8 µM [cytotoxic, single point]"
20,CC(/C=C/C(=O)NO)=C\[C@@H](C)C(=O)c1ccc(N(C)C)cc1,active: 1 µM
